Experimental data: patent publication US10358436B2, “Kinase inhibitors and method of treating cancer” (University Health Network, priority 2010, dated 2019)
Like-named read-outs stand apart in the source and are kept apart here.

Assays:
Test in all cases: cells
[1] = tested on: MCF-7 luminal breast cancer cell line; conditions: Homo sapiens, MCF7, 120 h
[2] = tested on: A549 lung cancer cell line; conditions: Homo sapiens, A549, 120 h, read-out: Cell Line GI50 Range A-549
[3] = tested on: SW620 colon cancer cell line; conditions: Homo sapiens, SW-620, 120 h, read-out: Cell Line GI50 Range SW-620
[4] = tested on: HCC1954 basal breast cancer cell line; conditions: Homo sapiens, HCC1954, 120 h
[5] = tested on: MDA-MB-468 basal breast cancer cell line; conditions: Homo sapiens, MDA-MB-468, 120 h, read-out: Cell Line GI50 Range MDA-MB-468
[6] = read-out: Cell Line GI50 Range MCF-7, MCF-7 luminal breast cancer cell line, SRB assay, 5 days
[7] = read-out: Cell Line GI50 Range HCC-1954, HCC1954 basal breast cancer cell line, SRB assay, 5 days
[8] = read-out: Cell Line GI50 Range MCF-7
[9] = read-out: Cell Line GI50 Range HCC-1954

GI50 [1, 6] | GI50 [2] | GI50 [3] | GI50 [4, 7] | GI50 [5] | GI50 [1, 8] | GI50 [4, 9] | SMILES
1000 to 10000 nM | < 100 nM | < 100 nM | 100 to 1000 nM | < 100 nM |  |  | COCCN1C(=O)[C@@]2(C[C@H]2c2ccc3c(/C=C/c4ccc(CN(C)C)cc4)n[nH]c3c2)c2ccccc21 [Example A131, (1R,2S)-(E)-2-(3-(4-((dimethylamino)methyl)styryl)-1H-indazol-6-yl)-1′-(2-methoxyethyl)spiro[cyclopropane-1,3′-indolin]-2′-one 2,2,2-trifluoroacetate]
 | 100 to 1000 nM | 100 to 1000 nM |  | 100 to 1000 nM | 1000 to 10000 nM | > 10000 nM | COc1ccc2c(c1)[C@]1(C[C@H]1c1ccc3c(-c4ccc(CN(C)C)cc4)n[nH]c3c1)C(=O)N2 (relative stereo) [Example A166, (1R*,2S*)-2-(3-(4-((dimethylamino)methyl)phenyl)-1H-indazol-6-yl)-5′-methoxyspiro[cyclopropane-1,3′-indolin]-2′-one 2,2,2-trifluoroacetate]
 | 100 to 1000 nM | 1000 to 10000 nM |  | 100 to 1000 nM | 100 to 1000 nM | 1000 to 10000 nM | COc1ccc2c(c1)[C@]1(C[C@H]1c1ccc3c(-c4ccc(CN5CCOCC5)cc4)n[nH]c3c1)C(=O)N2 (relative stereo) [Example A139, (1R*,2S*)-5′-methoxy-2-(3-(4-(morpholinomethyl)phenyl)-1H-indazol-6-yl)spiro[cyclopropane-1,3′-indolin]-2′-one 2,2,2-trifluoroacetate]
100 to 1000 nM | < 100 nM | < 100 nM | 100 to 1000 nM | < 100 nM |  |  | COCCN1C(=O)[C@@]2(C[C@H]2c2ccc3c(/C=C/c4ccc(CN(C)C)cc4)n[nH]c3c2)c2ccccc21 (relative stereo) [Example A180, (1R*,2S*)-(E)-2-(3-(4-((dimethylamino)methyl)styryl)-1H-indazol-6-yl)-1′-(2-methoxyethyl)spiro[cyclopropane-1,3′-indolin]-2′-one 2,2,2-trifluoroacetate]
 | < 100 nM | 100 to 1000 nM |  | < 100 nM | > 10000 nM | 1000 to 10000 nM | CCN(CC)Cc1c(F)cc(/C=C/c2n[nH]c3cc([C@@H]4C[C@@]45C(=O)Nc4ccccc45)ccc23)cc1F [Example A221, (1R,2S)-(E)-2-(3-(4-((diethylamino)methyl)-3,5-difluorostyryl)-1H-indazol-6-yl)spiro[cyclopropane-1,3′-indolin]-2′-one 2,2,2-trifluoroacetate]
 | < 100 nM | 100 to 1000 nM |  | < 100 nM | 1000 to 10000 nM | 1000 to 10000 nM | CN1CCN(c2ccc(/C=C/c3n[nH]c4cc([C@@H]5C[C@@]56C(=O)Nc5ccccc56)ccc34)cn2)CC1 (relative stereo) [Example A157, (1R*,2S*)-2-(3-((E)-2-(6-(4-methylpiperazin-1-yl)pyridin-3-yl)vinyl)-1H-indazol-6-yl)spiro[cyclopropane-1,3′-indolin]-2′-one bis-2,2,2-trifluoroacetate]
 | < 100 nM | < 100 nM |  | < 100 nM | < 100 nM | 1000 to 10000 nM | COc1ccc2c(c1)[C@]1(C[C@H]1c1ccc3c(/C=C/c4csc(CN5CCOCC5)c4)n[nH]c3c1)C(=O)N2 [Example A183, (1R,2S)-5′-methoxy-2-(3-((E)-2-(5-(morpholinomethyl)thiophen-3-yl)vinyl)-1H-indazol-6-yl)spiro[cyclopropane-1,3′-indolin]-2′-one 2,2,2-trifluoroacetate]
 | < 100 nM | < 100 nM |  | 100 to 1000 nM | 100 to 1000 nM | 1000 to 10000 nM | COc1ccc2c(c1)[C@]1(C[C@H]1c1ccc3c(-c4ccc(N5CCN(C)CC5)cc4)n[nH]c3c1)C(=O)N2C (relative stereo) [Example A100, (1R*,2S*)-5′-methoxy-1′-methyl-2-(3-(4-(4-methylpiperazin-1-yl)phenyl)-1H-indazol-6-yl)spiro[cyclopropane-1,3′-indolin]-2′-one 2,2,2-trifluoroacetate]
